Drawing on patent EP4537907A1 (Enthera S.r.l., dated 2025), this text covers IC50, EC50 and Kd for one molecule.

Assay [1] addresses T1, recombinant human CD248 (internally produced) (human, UniProt Q9HCU0 18-687, limits assumed, biotinylated in the inhibition ELISA).
T1 construct: Soluble recombinant protein; also called human recombinant CD248; biotinylated CD248 (internally produced)
T1 sequence (looked up): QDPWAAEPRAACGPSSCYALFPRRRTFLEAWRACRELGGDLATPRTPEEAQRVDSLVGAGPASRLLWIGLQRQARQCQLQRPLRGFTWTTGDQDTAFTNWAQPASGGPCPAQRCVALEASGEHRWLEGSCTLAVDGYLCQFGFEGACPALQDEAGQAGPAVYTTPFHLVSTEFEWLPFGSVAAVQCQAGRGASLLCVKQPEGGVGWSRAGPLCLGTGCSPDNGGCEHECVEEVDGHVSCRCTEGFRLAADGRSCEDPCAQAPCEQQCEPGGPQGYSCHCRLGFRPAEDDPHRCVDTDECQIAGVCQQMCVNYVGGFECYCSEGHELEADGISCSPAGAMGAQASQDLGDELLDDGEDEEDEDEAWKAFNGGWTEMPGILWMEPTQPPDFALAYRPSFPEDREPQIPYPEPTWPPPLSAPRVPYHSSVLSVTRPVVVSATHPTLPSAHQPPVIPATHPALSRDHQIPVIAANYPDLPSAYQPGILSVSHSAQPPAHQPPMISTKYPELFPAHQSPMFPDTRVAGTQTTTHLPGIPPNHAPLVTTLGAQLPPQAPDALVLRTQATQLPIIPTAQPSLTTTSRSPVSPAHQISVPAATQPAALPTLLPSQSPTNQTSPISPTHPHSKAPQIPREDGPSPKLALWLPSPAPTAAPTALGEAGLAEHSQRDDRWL
Nature of the assay: competition ELISA: purified IgG4 (S228P/L235E) with biotinylated human CD248, added to immobilised human IGFBP5, Streptavidin-HRP. For orientation: In an ELISA, binding on a coated surface is turned into a signal by an enzyme label.

For assay [2], the target named is T2, human CD248 expressed on the cell membrane of transiently transfected HEK 293 cells (human, UniProt Q9HCU0 18-757).
T2 construct: whole, on cells; also called human CD248+ cells; CD248-positive cells
T2 sequence (looked up): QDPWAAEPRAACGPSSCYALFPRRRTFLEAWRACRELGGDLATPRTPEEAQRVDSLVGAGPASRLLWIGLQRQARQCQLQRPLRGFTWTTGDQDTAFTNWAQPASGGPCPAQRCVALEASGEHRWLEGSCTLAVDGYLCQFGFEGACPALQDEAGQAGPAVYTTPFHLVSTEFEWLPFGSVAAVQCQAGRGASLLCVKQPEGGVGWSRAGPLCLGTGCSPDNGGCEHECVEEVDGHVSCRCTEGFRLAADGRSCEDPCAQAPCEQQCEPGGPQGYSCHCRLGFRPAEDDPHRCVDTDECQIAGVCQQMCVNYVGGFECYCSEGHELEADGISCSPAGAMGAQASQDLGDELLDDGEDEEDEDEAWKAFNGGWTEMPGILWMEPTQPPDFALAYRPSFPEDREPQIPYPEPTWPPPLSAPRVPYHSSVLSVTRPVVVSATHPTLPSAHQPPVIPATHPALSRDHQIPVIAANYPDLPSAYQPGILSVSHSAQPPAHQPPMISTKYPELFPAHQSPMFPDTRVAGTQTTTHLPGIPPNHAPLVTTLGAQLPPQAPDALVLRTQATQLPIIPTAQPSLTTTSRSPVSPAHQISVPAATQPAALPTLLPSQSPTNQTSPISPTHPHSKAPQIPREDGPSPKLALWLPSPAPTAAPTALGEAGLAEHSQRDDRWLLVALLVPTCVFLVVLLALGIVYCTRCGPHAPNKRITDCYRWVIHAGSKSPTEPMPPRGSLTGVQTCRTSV
Nature of the assay: flow cytometry on transiently transfected HEK 293 cells, secondary anti-human IgG, antibody concentration series. (In general: A flow cytometer gives signals particle by particle.)

The target of assay [3] is T3, mouse CD248 expressed on the cell membrane of transiently transfected HEK 293 cells (mouse, UniProt Q91V98 18-765).
T3 construct: whole, on cells; also called mouse CD248+ cells
T3 sequence (looked up): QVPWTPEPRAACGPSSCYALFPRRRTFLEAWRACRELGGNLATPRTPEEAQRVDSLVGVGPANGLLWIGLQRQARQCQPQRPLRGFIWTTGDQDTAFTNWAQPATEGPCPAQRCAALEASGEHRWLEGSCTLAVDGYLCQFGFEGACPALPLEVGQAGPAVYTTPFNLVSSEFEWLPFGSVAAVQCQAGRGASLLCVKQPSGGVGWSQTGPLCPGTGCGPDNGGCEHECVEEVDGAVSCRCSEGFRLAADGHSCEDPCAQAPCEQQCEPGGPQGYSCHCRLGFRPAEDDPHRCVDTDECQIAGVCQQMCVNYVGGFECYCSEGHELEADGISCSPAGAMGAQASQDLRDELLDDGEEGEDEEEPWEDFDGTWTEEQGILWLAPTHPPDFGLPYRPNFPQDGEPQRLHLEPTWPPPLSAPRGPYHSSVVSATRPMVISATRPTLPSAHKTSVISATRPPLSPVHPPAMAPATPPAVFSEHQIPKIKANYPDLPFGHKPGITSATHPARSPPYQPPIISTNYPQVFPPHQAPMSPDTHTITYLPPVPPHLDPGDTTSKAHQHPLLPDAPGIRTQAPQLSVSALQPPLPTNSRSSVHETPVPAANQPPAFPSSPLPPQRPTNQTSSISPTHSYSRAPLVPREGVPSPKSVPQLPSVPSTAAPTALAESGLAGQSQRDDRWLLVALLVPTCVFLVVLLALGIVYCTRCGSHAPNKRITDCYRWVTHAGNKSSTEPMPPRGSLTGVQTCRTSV
Nature of the assay: flow cytometry on transiently transfected HEK 293 cells, secondary anti-human IgG; the row's antigen cell prints 'Human CD248', taken as a misprint of Mouse CD248 from the table's order.

The target of assay [4] is T4, recombinant mouse CD248 (internally produced) (mouse, UniProt Q91V98 18-695, limits assumed).
T4 construct: also called murine recombinant CD248; Murine CD248
T4 sequence (looked up): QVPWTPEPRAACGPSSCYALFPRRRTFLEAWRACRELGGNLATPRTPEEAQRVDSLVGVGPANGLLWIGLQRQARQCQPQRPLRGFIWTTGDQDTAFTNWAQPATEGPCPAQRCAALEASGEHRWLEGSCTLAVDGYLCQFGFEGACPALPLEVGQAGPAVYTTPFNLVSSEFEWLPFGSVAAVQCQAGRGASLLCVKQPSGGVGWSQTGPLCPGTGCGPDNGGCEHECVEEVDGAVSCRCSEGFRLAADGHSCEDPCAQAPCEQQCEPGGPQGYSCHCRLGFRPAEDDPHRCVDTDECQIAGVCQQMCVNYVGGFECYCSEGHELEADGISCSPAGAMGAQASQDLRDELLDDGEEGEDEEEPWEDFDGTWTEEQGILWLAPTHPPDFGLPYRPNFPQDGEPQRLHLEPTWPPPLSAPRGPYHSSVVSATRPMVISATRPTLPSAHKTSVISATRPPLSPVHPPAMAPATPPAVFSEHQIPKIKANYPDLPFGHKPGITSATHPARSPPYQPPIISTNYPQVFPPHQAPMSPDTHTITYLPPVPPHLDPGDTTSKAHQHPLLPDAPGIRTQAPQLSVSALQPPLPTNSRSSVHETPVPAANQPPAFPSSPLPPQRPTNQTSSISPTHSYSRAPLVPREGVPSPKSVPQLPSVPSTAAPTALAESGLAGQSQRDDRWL
Nature of the assay: BLI (Octet platform, BLItz System), mAb captured via Fc on AHC biosensor, soluble antigen at different concentrations. On the technique in general: BLI is a label-free optical method that tracks binding on a fibre tip over time.

Assay [5] addresses T1, recombinant human CD248 (internally …). The description is as above.

B1: YU1022-D08 (antibody, V domains shown)
VH: [no letters for about 100 residues]LTGTTWGQGTLVTVSS
VL: DIVMTQSPDSLAVSLGERATINCKSSRSVLYSSNNKNYLAWYQQKPGQPPKLLIYWASTRESGVPDRFSGSGSGTDFTLTISSLQAEDVAVYYCQQYYSTPYSFGQGTKVEIK
notes: Tested as full human IgG4 carrying the S228P/L235E mutations, made in HEK 293 cells; light 56, 57 or 58); also called YU1022-D08 mAb; YU1022-D08 IgG4 mAb
By IC50 is commonly meant the concentration that inhibits the measured activity by half. As a reminder, the EC50 is the concentration at which the effect is half-maximal. A higher EC50 goes with a need for much substance. The term Kd denotes the concentration at which binding is half-saturated. Turning to B1, the IC50 in assay [1] came to 41.6 µg/mL. The EC50 in assay [2] turned out to be 0.0261 µg/mL; in assay [3], 0.0238 µg/mL. The Kd in assay [4] is 11.9 nM; in assay [5], 5.37 nM.
